Experimental data published in the supplement of paper PMC12217912.
This is one part of the list. The full chains were built here from the parent and the listed change. Inactive controls read about 0.05.

B1: TEV protease; numbered along this chain (parent)
chain: MGESLFKGPRDYNPISSSICHLTNESDGHTTSLYGIGFGPFIITNKHLFRRNNGTLVVQSLHGVFKVKDTTTLQQHLVDGRDMIIIRMPKDFPPFPQKLKFREPQREERICLVTTNFQTKSMSSMVSDTSCTFPSGDGIFWKHWIQTKDGQCGSPLVSTRDGFIVGIHSASNFTNTNNYFTSVPKNFMELLTNQEAQQWVSGWRLNADSVLWGGHKVFMVKPEEPFQPVKEATQL

Variants of: B1
Assay: raw area under fraction-flipped curve 0-4 h after induction (AUC4h, not background-subtracted), DNA-recorder readout of cleavage of the substrate (dimensionless); higher = more cleavage of the substrate by the protease variant
Settings: temperature: 34 °C; time window: 0-4 h after rhamnose induction
Protocol: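 In vivo DNA recorder in E. coli TOP10(DE3) ΔrhaA at 34 °C. Each TEVp single-site mutant (parent TEVp 0) is paired with a single-site variant of the 7-mer TEVs (canonical ENLYFQ|S). The substrate sits between flexible linkers in a Bxb1-sfGFP-TEVs-SsrA fusion, so cleavage stabilises Bxb1 and speeds flipping of a recombination array, read by NGS. The value is the raw area under the fraction-flipped curve over 0-4 h after rhamnose induction (AUC4h), with ≥20 reads per time point. It is not background-subtracted; inactive controls average about 0.047.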
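Further: Bxb1 expression induced with 0.2% (w/v) L-rhamnose at OD600 near 0.5, cultures sampled hourly, flipped fraction per protease–substrate barcode pair counted by paired-end Illumina sequencing.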

| Variant | area with substrate ENLYFAS | area with substrate ENLYFCS | area with substrate ENLYFES | area with substrate ENLYFFS | area with substrate ENLYFGS | area with substrate ENLYFHS | area with substrate ENLYFIS | area with substrate ENLYFLS | area with substrate ENLYFMS | area with substrate ENLYFNS | area with substrate ENLYFPS | area with substrate ENLYFRS | area with substrate ENLYFSS | area with substrate ENLYFWS | area with substrate ENLYFDS | area with substrate ENLYFTS | area with substrate ENLYFVS | area with substrate ENLYFYS | area with substrate ENLYFKS |
| --- | --- | --- | --- | --- | --- | --- | --- | --- | --- | --- | --- | --- | --- | --- | --- | --- | --- | --- | --- |
| MGESLFKGPRDYNPISSSICHLTNESDGHTTSLYGIGFGPFIITNKHLFRRNNGTLVVQSLHGVFKVKDTTTLQQHLVDGRDMIIIRMPKDFPPFPQKLKFREPQREERICLVTTNFQTKSMSSMVSDTSCTFPSGDGIFWKHWIQTKDGQCGSPLVSTYDGFIVGIHSASNFTNTNNYFTSVPKNFMELLTNQEAQQWVSGWRLNADSVLWGGHKVFMVKPEEPFQPVKEATQL [R160Y] | 0.0638 | 0.054 | 0.06 | 0.0706 | 0.0546 | 0.074 | 0.0595 | 0.0377 | 0.0683 | 0.074 | 0.0688 | 0.0571 | 0.0571 | 0.0583 |  |  |  |  |  |
| MGESLFKGPRDYNPISSSICHLTNESDGHTTSLYGIGFGPFIITNKHLFRRNNGTLVVQSLHGVFKVKDTTTLQQHLVDGRDMIIIRMPKDFPPFPQKLKFREPQREERICLVTTNFQTKSMSSMVSDTSCTFPSGDGIFWKHWIQTKDGQCGSPLVSTIDGFIVGIHSASNFTNTNNYFTSVPKNFMELLTNQEAQQWVSGWRLNADSVLWGGHKVFMVKPEEPFQPVKEATQL [R160I] | 0.0711 | 0.0616 | 0.0633 | 0.0696 | 0.0688 | 0.0613 | 0.0534 | 0.0708 | 0.0611 | 0.0618 | 0.0589 | 0.0683 |  | 0.0569 | 0.0586 | 0.0658 | 0.0461 | 0.0602 |  |
| MGESLFKGPRDYNPISSSICHLTNESDGHTTSLYGIGFGPFIITNKHLFRRNNGTLVVQSLHGVFKVKDTTTLQQHLVDGRDMIIIRMPKDFPPFPQKLKFREPQREERICLVTTNFQTKSMSSMVSDTSCTFPSGDGIFWKHWIQTKDGQCGSPLVSTDDGFIVGIHSASNFTNTNNYFTSVPKNFMELLTNQEAQQWVSGWRLNADSVLWGGHKVFMVKPEEPFQPVKEATQL [R160D] | 0.0645 | 0.0657 | 0.042 | 0.0779 | 0.0742 | 0.0633 | 0.0637 |  | 0.0749 | 0.0663 |  | 0.0561 |  | 0.0571 |  | 0.0532 | 0.0309 | 0.0487 | 0.0559 |
| MGESLFKGPRDYNPISSSICHLTNESDGHTTSLYGIGFGPFIITNKHLFRRNNGTLVVQSLHGVFKVKDTTTLQQHLVDGRDMIIIRMPKDFPPFPQKLKFREPQREERICLVTTNFQTKSMSSMVSDTSCTFPSGDGIFWKHWIQTKDGQCGSPLVSTRDGFAVGIHSASNFTNTNNYFTSVPKNFMELLTNQEAQQWVSGWRLNADSVLWGGHKVFMVKPEEPFQPVKEATQL [I164A] | 0.0646 | 0.0566 | 0.0434 | 0.0863 |  | 0.0398 | 0.0431 |  |  |  | 0.0493 | 0.0502 | 0.0476 | 0.0612 |  | 0.0515 |  | 0.0485 | 0.055 |
| MGESLFKGPRDYNPISSSICHLTNESDGHTTSLYGIGFGPFIITNKHLFRRNNGTLVVQSLHGVFKVKDTTTLQQHLVDGRDMIIIRMPKDFPPFPQKLKFREPQREERICLVTTNFQTKSMSSMVSDTSCTFPSGDGIFWKHWIQTKDGQIGSPLVSTRDGFIVGIHSASNFTNTNNYFTSVPKNFMELLTNQEAQQWVSGWRLNADSVLWGGHKVFMVKPEEPFQPVKEATQL [C152I] | 0.0459 | 0.0626 | 0.0275 | 0.0766 | 0.0469 | 0.054 | 0.0525 | 0.0624 | 0.0605 | 0.0437 | 0.0576 | 0.053 | 0.0629 | 0.0401 | 0.0633 | 0.0585 | 0.0482 | 0.0641 | 0.0682 |
| MGESLFKGPRDYNPISSSICHLTNESDGHTTSLYGIGFGPFIITNKHLFRRNNGTLVVQSLHGVFKVKDTTTLQQHLVDGRDMIIIRMPKDFPPFPQKLKFREPQREERICLVTTNFQTKSMSSMVSDTSCTFPSGDGIFWKHWIQTKDGQWGSPLVSTRDGFIVGIHSASNFTNTNNYFTSVPKNFMELLTNQEAQQWVSGWRLNADSVLWGGHKVFMVKPEEPFQPVKEATQL [C152W] | 0.0602 | 0.0606 | 0.0656 | 0.0832 | 0.0671 | 0.0696 | 0.0544 | 0.0311 | 0.0513 | 0.0663 | 0.0596 | 0.0702 |  | 0.0535 | 0.0565 | 0.0516 | 0.0554 | 0.0596 | 0.05 |
| MGESLFKGPRDYNPISSSICHLTNESDGHTTSLYGIGFGPFIITNKHLFRRNNGTLVVQSLHGVFKVKDTTTLQQHLVDGRDMIIIRMPKDFPPFPQKLKFREPQREERICLVTTNFQTKSMSSMVSDTSCTFPSGDGIFWKHWIQTKDGQLGSPLVSTRDGFIVGIHSASNFTNTNNYFTSVPKNFMELLTNQEAQQWVSGWRLNADSVLWGGHKVFMVKPEEPFQPVKEATQL [C152L] | 0.0256 | 0.0514 | 0.0523 |  |  | 0.0553 |  |  | 0.0556 |  | 0.0546 | 0.0586 |  | 0.0627 |  | 0.0634 | 0.0517 |  | 0.0585 |
| MGESLFKGPRDYNPISSSICHLTNESDGHTTSLYGIGFGPFIITNKHLFRRNNGTLVVQSLHGVFKVKDTTTLQQHLVDGRDMIIIRMPKDFPPFPQKLKFREPQREERICLVTTNFQTKSMSSMVSDTSCTFPSGDGIFWKHWIQTKDGQCGSPLVSTRDCFIVGIHSASNFTNTNNYFTSVPKNFMELLTNQEAQQWVSGWRLNADSVLWGGHKVFMVKPEEPFQPVKEATQL [G162C] | 0.0269 | 0.061 | 0.0673 | 0.0535 |  | 0.06 | 0.0659 | 0.0596 | 0.0561 | 0.0585 | 0.0591 | 0.0623 |  | 0.0575 | 0.0526 | 0.0549 | 0.0609 | 0.0491 | 0.0648 |
| MGESLFKGPRDYNPISSSICHLTNESDGHTTSLYGIGFGPFIITNKHLFRRNNGTLVVQSLHGVFKVKDTTTLQQHLVDGRDMIIIRMPKDFPPFPQKLKFREPQREERICLVTTNFQTKSMSSMVSDTSCTFPSGDGIFWKHWIQTKDGQCGSPLVSTRVGFIVGIHSASNFTNTNNYFTSVPKNFMELLTNQEAQQWVSGWRLNADSVLWGGHKVFMVKPEEPFQPVKEATQL [D161V] | 0.0464 | 0.0548 | 0.0569 | 0.052 | 0.0596 |  | 0.0487 | 0.0497 | 0.0614 | 0.0376 | 0.0533 | 0.0571 | 0.0517 |  | 0.0434 | 0.0527 | 0.0563 | 0.0548 | 0.057 |
